We go through one substance from paper PMC2954335.

For the experiment, the target named is maCTLA-4 (mammalian-expressed, deglycosylated human CTLA-4 homodimer, extracellular domain, amino acids 1-126) (human) (UniProt P16410). The experiment is described as follows: SEC; gel filtration of purified maCTLA-4; nonreducing SDS-PAGE of the main peak, around 25 kDa; disulfide-bonded homodimer.

For orientation: stoichiometry N means the number of molecules, sites or subunits per partner or assembly. In the case of “maCTLA-4 (mammalian-expressed, deglycosylated human CTLA-4 homodimer, extracellular domain, […]) (a stretch of the chain, chain not printed) (domain or fragment; interchain disulfide at cysteine 122; deglycosylated with endo Hf; interchain disulfide at cysteine 122; deglycosylated with endo Hf; other documents disagree on this pair)”, the stoichiometry N worked out at 2.
